Results taken from the supplement of paper PMC6089552.
The campaign covered roughly 3,200 compounds. About 300 (9.4%) showed activity. Only a part is listed here, and it is no random draw.

Test system: A673/TR/shEF
Test: cell viability (LOESS-normalised, relative to median of negative controls) (log2 ratio); higher = more viable cells (less compound effect), active = hit call of the paper (over 3 MAD below the median)
Conditions: treatment time: 72 h
Method in brief: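 Viability of A673/TR/shEF Ewing sarcoma cells was determined by CellTiter-Glo luminescence. The cells, at 1,500 per well in 384-well plates, were grown with or without doxycycline from 24 h before compound addition to switch on EWS-FLI1 shRNA knockdown, then exposed for three days to library compounds at two or more concentrations or to DMSO controls. Signals were LOESS-corrected plate by plate, normalised to the negative-control median and log2-transformed.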

[1] = 0.103 µM, library screen: screen3, EWS-FLI1 expression: high (no doxycycline)
[2] = 0.103 µM, library screen: screen3, EWS-FLI1 expression: low (doxycycline-induced shRNA knockdown)
[3] = 0.25 µM, library screen: screen1, EWS-FLI1 expression: high (no doxycycline)
[4] = 0.25 µM, library screen: screen1, EWS-FLI1 expression: low (doxycycline-induced shRNA knockdown)
[5] = 0.308 µM, library screen: screen3, EWS-FLI1 expression: high (no doxycycline)
[6] = 0.308 µM, library screen: screen3, EWS-FLI1 expression: low (doxycycline-induced shRNA knockdown)
[7] = 0.926 µM, library screen: screen3, EWS-FLI1 expression: high (no doxycycline)
[8] = 0.926 µM, library screen: screen3, EWS-FLI1 expression: low (doxycycline-induced shRNA knockdown)
[9] = 2.5 µM, library screen: screen1, EWS-FLI1 expression: high (no doxycycline)
[10] = 2.5 µM, library screen: screen1, EWS-FLI1 expression: low (doxycycline-induced shRNA knockdown)
[11] = 2.8 µM, library screen: screen3, EWS-FLI1 expression: high (no doxycycline)
[12] = 2.8 µM, library screen: screen3, EWS-FLI1 expression: low (doxycycline-induced shRNA knockdown)
[13] = 8.3 µM, library screen: screen3, EWS-FLI1 expression: high (no doxycycline)
[14] = 8.3 µM, library screen: screen3, EWS-FLI1 expression: low (doxycycline-induced shRNA knockdown)
[15] = 25 µM, library screen: screen3, EWS-FLI1 expression: high (no doxycycline)
[16] = 25 µM, library screen: screen3, EWS-FLI1 expression: low (doxycycline-induced shRNA knockdown)
[17] = 0.25 µM, library screen: screen2, EWS-FLI1 expression: high (no doxycycline)
[18] = 0.25 µM, library screen: screen2, EWS-FLI1 expression: low (doxycycline-induced shRNA knockdown)
[19] = 2.5 µM, library screen: screen2, EWS-FLI1 expression: high (no doxycycline)
[20] = 2.5 µM, library screen: screen2, EWS-FLI1 expression: low (doxycycline-induced shRNA knockdown)

Measured: cell viability (log2)

CN[C@@H]1[C@H](O)[C@H](NC)[C@H]2O[C@@]3(O)C(=O)C[C@@H](C)O[C@H]3O[C@@H]2[C@H]1O
inactive: [1] 0.0855 | [2] 0.0941 | [3] 0.118 | [4] 0.0608 | [5] 0.12 | [6] 0.1 | [7] 0.119 | [8] 0.0426 | [9] 0.12 | [10] 0.102 | [11] 0.0429 | [12] 0.0599 | [13] 0.0864 | [14] 0.0884 | [15] 0.0812 | [16] 0.13

CN[C@H](CC(=O)O)C(=O)O
inactive: [3] 0.00235 | [4] 0.0602 | [17] 0.204 | [18] 0.0919 | [9] 0.0429 | [10] 0.111 | [19] 0.13 | [20] 0.0445

COc1ccc2c(c1)c(CC(=O)Nc1ccc(NC(C)=O)cc1)c(C)n2C(=O)c1ccc(Cl)cc1
inactive: [17] -0.0274 | [18] 0.0874 | [19] 0.0757 | [20] 0.214

CN(N=O)C(=O)N[C@@H]1[C@@H](O)[C@H](O)[C@@H](CO)O[C@@H]1O
inactive: 0.025 µM, library screen: screen2, EWS-FLI1 expression: high (no doxycycline) 0.107 | 0.025 µM, library screen: screen2, EWS-FLI1 expression: low (doxycycline-induced shRNA knockdown) 0.0491 | [1] 0.0693 | [2] 0.0836 | [3] 0.057 | [4] -0.0645 | [17] 0.161 | [18] 0.048 | [5] 0.0762 | [6] 0.0798 | [7] 0.162 | [8] 0.137 | [9] 0.143 | [10] 0.0187 | [19] 0.179 | [20] 0.059 | [11] 0.133 | [12] 0.0421 | [13] 0.135 | [14] 0.04 | 25 µM, library screen: screen2, EWS-FLI1 expression: high (no doxycycline) 0.177 | 25 µM, library screen: screen2, EWS-FLI1 expression: low (doxycycline-induced shRNA knockdown) 0.0357 | [15] 0.137 | [16] 0.0878

Cc1ccc(-c2nn(C(C)(C)C)c3ncnc(N)c23)cc1
inactive: 0.025 µM, library screen: screen1, EWS-FLI1 expression: high (no doxycycline) 0.00835 | 0.025 µM, library screen: screen1, EWS-FLI1 expression: low (doxycycline-induced shRNA knockdown) -0.00557 | [3] 0.0184 | [4] 0.0452 | [9] -0.0765 | [10] 0.104 | 25 µM, library screen: screen1, EWS-FLI1 expression: low (doxycycline-induced shRNA knockdown) -0.07
active: 25 µM, library screen: screen1, EWS-FLI1 expression: high (no doxycycline) -0.108

NCCCC(=O)O
inactive: [3] 0.0628 | [4] 0.0888 | [17] 0.148 | [18] 0.12 | [9] 0.21 | [10] 0.0413 | [19] 0.0279 | [20] 0.142

NCCc1cnc[nH]1
inactive: [3] 0.0774 | [4] 0.0793 | [17] 0.172 | [18] 0.046 | [9] 0.16 | [10] 0.0294 | [19] 0.142 | [20] 0.101

Cc1sc2c(=O)n3c(nc2c1C(=O)NCCc1ccccc1)CCCCC3
inactive: [3] 0.129 | [4] 0.0568 | [9] 0.167 | [10] 0.136

OC[C@H]1NC[C@H](O)[C@@H](O)[C@@H]1O
inactive: [17] 0.273 | [18] 0.124 | [19] 0.177 | [20] 0.145
